Source: the RNAGym collection of RNA variant scans (doi:10.1093/nar/gkz1192)
The source gives no read counts; variants with many changes may rest on few reads.

B1: CPEB3 Ribozyme (parent)
chain: UAACAGGGGGCCACAGCAGAAGCGUUCACGUCGCAGCCCCUGUCAGAUUCUGGUGAAUCUGCGAAUUCUGCUGUAUAUCUC

Variants of: B1
Experiment: self-cleavage, relative activity (ratio to wild type); higher = more cleavage; in vitro, sequencing
Method in brief: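 Libraries of CPEB3 self-cleaving ribozyme mutants came from rounds of error-prone PCR and carried barcodes, which DNA sequencing matched to variants. In vitro transcription used T7 RNA polymerase at 37°C for 5 hours, with a further 15 min in DNase I before EDTA stopped the reaction; the ribozymes cleaved during both steps. The RNA was reverse transcribed with template switching and sequenced on Illumina. Relative activity is the cleaved/total read fraction of a variant divided by that of the unmutated ribozyme, averaged over three batches with at least 5 reads.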

| Variant | self-cleavage |
| --- | --- |
| A15G A35C A47G U54C U76C U80C | 0.58 |
| A15G C23G C40A | 0.09 |
| A15G A45G U80C | 0.94 |
| A15G A18G U25C U80C | 0.08 |
| A15G C32U U49A A65G | 0.09 |
| A15G A18U A21G U26A U41A A57G U58A | 0.06 |
| A15G A20G U25C A28U | 0.41 |
| A15G A18U U43C U51C | 0.28 |
| A15G A20G C40U A45U G46A | 0.12 |
| A15G A47G U48G | 0.14 |
| A15G A21G U48C A64G U72C | 0.09 |
| A15G A35C U41C | 0.58 |
| A15G A35G A45G U58C U78A | 0.31 |
| A15G A35G A45G U69A A75C A77U | 0.17 |
| A15G G16A U31C A45U U60A | 0.19 |
| A15G A20G U25C A28U U67C | 0.51 |
| A15G A21G U26C U60A U72G | 0.07 |
| A15G C27A C40U U51A U69C | 0.08 |
| A15G A28U A47G U72C | 0.99 |
| A15G C44G U60A | 0.2 |
| A15G A18U C39A G46U | 0.06 |
| A15G C27U U31C C40U U58A | 0.08 |
| A15G G22A U49C A64G U72C U80C | 0.07 |
| A15G A64C U80C | 0.19 |

| Variant | self-cleavage |
| --- | --- |
| A15G A18U A45G U74G | 0.24 |
| A15G A21G A56U U72C | 0.66 |
| A15G C23U U41C U43A A56C | 0.17 |
| A15G G24A C38A U66C | 0.11 |
| A15G A56G A64U U72G C79U | 0.16 |
| A15G C23G U41A U43C C79G | 0.27 |
| A15G A28G U72C | 0.97 |
| A15G A28G U72A | 0.11 |
| A15G A35G U54C G61A | 0.13 |
| A15G A35U U54G A75U | 0.67 |
| A15G A45G U60C U78C | 0.43 |
| A15G A21G A65G U72C | 0.6 |
| A15G A21G A47G | 0.57 |
| A15G C34U G36A U43C A45G | 0.05 |
| A15G A28U U78G | 0.17 |
| A15G A21G U43A A65G U69A | 0.11 |
| A15G A35G U72G U76C | 0.54 |
| A15G A28U G61U | 0.16 |
| A15G A18G G55U U69A U80A | 0.12 |
| A15G C17U A21U A28G A45U U60A U72C | 0.1 |
| A15G A35G A56G | 0.42 |
| A15G A20U A21U C40U U80C | 0.25 |
| A15G A20G C34U A45G A56G U74C | 0.22 |
| A15G C40U U43C U60A | 0.15 |

| Variant | self-cleavage |
| --- | --- |
| A15G A18U U49C U54C A64U | 0.16 |
| A15G C23A U26C | 0.31 |
| A15G G16A A45G U48C U80C | 0.17 |
| A15G C62U U66C U76C A77G | 0.13 |
| A15G A21U A35G U48C U60A | 0.14 |
| A15G A18U A35G | 0.34 |
| A15G A35U U43A C50A A56U U66A | 0.21 |
| A15G A18U C37U A45C U67A | 0.18 |
| A15G A20G A47G A56G U72A | 0.24 |
| A15G A18G U72A | 0.1 |
| A15G A18G U49C | 0.12 |
| A15G A28C U66C | 0.23 |
| A15G A20U A21G U43C G55U | 0.09 |
| A15G A65G U66C | 0.23 |
| A15G A35U U74C U80C | 0.9 |
| A15G A20C U80C | 0.47 |
| A15G G24U U41C A56G U78C U80C | 0 |
| A15G C62U U66C U72C U76C | 0.2 |
| A15G A18G U43C A56U U69C | 0.09 |
| A15G G16A U25C U31C U41C U72A | 0.06 |
| A15G A47G U48C G55U U76A | 0.1 |
| A15G G19C U31G A56U | 0.08 |
| A15G A35G U41C G53A | 0.54 |
| A15G A28U A35U U67C | 0.15 |

| Variant | self-cleavage |
| --- | --- |
| A15G A57G U58C A64G U69C | 0.2 |
| A15G A20U A28G | 0.26 |
| A15G A28G C37A C39U A56G U60A U69G | 0.13 |
| A15G A20G A57G | 0.3 |
| A15G A56G U66C A77U | 0.31 |
| A15G A18G U60C U76A | 0.11 |
| A15G A57G U78C | 0.58 |
| A15G G30A U48C | 0.19 |
| A15G A21C A35U U41A G55C U69C | 0.05 |
| A15G A20G U49C | 0.15 |
| A15G A20G A21U A28G G53C U76C U78C | 0.03 |
| A15G A77U U80C | 1.08 |
| A15G A28G A45C G73A | 0.16 |
| A15G C38A U51A U58A A64C U72C U78C | 0.04 |
| A15G A20U U58C U60C A64G | 0.09 |
| A15G A21G U41A A57G | 0.31 |
| A15G A28G U67G | 0.16 |
| A15G A57G U60C U80C | 0.31 |
| A15G A20G C50A G55U | 0.76 |
| A15G A18U U41C U48A U54A | 0.08 |
| A15G A28G A35G U41A C44A A45G U76C | 0.11 |
| A15G C50U A56G U76C U80C | 0.8 |
| A15G A28U U48C U69C | 0.1 |
| A15G A18U C32U A35G U58C | 0.17 |

| Variant | self-cleavage |
| --- | --- |
| A15G A35G A45U U67C A77G | 0.18 |
| A15G A47G A77G | 1.15 |
| A15G C39A U41C A56G U78C | 0.1 |
| A15G A45U U69C U72A | 0.13 |
| A15G A18U A28C A45G U60C U67A U74C | 0.09 |
| A15G A35U U43C U69C U72A | 0.09 |
| A15G A45G A56U A77C | 0.05 |
| A15G A28U A45G U51C U54C U69C G70U | 0.08 |
| A15G A28G G36C A47G U51A A56G A57C | 0.17 |
| A15G A18G U41C A65U U69A | 0.09 |
| A15G A21G U25C A28U A35C | 0.02 |
| A15G A20U U69A U72G | 0.09 |
| A15G A18G U66A | 0.32 |
| A15G A57G U58C U78C | 0.13 |
| A15G A21U A45G | 0.28 |
| A15G A45U U49G | 0.15 |
| A15G A64G U66C U67A U69G U72C | 0.23 |
| A15G C34U U72C | 0.33 |
| A15G A64C U67C | 0.18 |
| A15G A20G A21G U41C A56G | 0 |
| A15G A21G C40U U41C | 0.35 |
| A15G C27A A64G | 0.22 |
| A15G C39G G63A U80A | 0.14 |
| A15G G24A U43C A64U | 0.14 |

| Variant | self-cleavage |
| --- | --- |
| A15G A56G A57G U72C | 0.63 |
| A15G G22A C71A U72A U78C | 0.04 |
| A15G A20C U31C | 0.43 |
| A15G A28U C68U U72G | 0.05 |
| A15G A64G C81U | 0.51 |
| A15G A20U U78C | 0.26 |
| A15G C32U U43C U80C | 1.15 |
| A15G C17A A64G U78C | 0.22 |
| A15G A65U U66C | 0.34 |
| A15G A28U U48A U51A A56G U76C | 0.08 |
| A15G A35U A45G A77G | 0.18 |
| A15G G19U U49C | 0.3 |
| A15G A35U U72A | 0.25 |
| A15G A28U C44U A56U A57G A64G | 0.08 |
| A15G G24A U31C U41C | 0.08 |
| A15G A20G U31A A45G A47G U72C | 0.08 |
| A15G C44U A56U | 0.26 |
| A15G A45G U54A U72C | 1.13 |
| A15G G24U U25C U51A A75G | 0.23 |
| A15G A35U U69C U72G | 0.07 |
| A15G A18U A20G | 0.14 |
| A15G C17G A56U U78A | 0.14 |
| A15G C32A A45G U66C | 0.13 |
| A15G A35U U54C A65G A75C U80C | 0.11 |

| Variant | self-cleavage |
| --- | --- |
| A15G A45U U69C | 0.15 |
| A15G A21G U41C A45C U51A A77G | 0.04 |
| A15G A20G U25C C44U | 0.03 |
| A15G C17G A20G | 0.55 |
| A15G A18G C40U U72C | 0.64 |
| A15G A35G U43A A75G | 0.87 |
| A15G A20U U25A A47G U54C U72A U78C | 0.24 |
| A15G A35C U51C C71A U78C | 0.13 |
| A15G A20G A28G U31A | 0.11 |
| A15G A35G C79U | 0.43 |
| A15G A45G U51A U54C C59A | 0.24 |
| A15G A28U U49A G61A A77G | 0.09 |
| A15G A20U U43A A47G | 0.2 |
| A15G A21G A57G U72A | 0.17 |
| A15G A18U A35U U58C A77G | 0.09 |
| A15G A21U G46C U72C U78C | 0.15 |
| A15G C29U U54C A77U U78C | 0.27 |
| A15G C40G C44G | 0.33 |
| A15G A57G U66C | 0.21 |
| A15G C32G U43C A45G U49C | 0.09 |
| A15G A35G G53U U54C U58C | 0.24 |
| A15G A18U U74C | 0.35 |
| A15G A28G U67C U72C | 0.11 |
